# According to the supplement of paper PMC9446081:
# Hit rate of the full screen: of about 39,000 compounds, about 220 (0.56%) showed activity. Some of the results follow.
# Test system: Escherichia coli K-12 BW25113
# Assay: relative growth (OD600 normalised to plate interquartile mean) (fraction); higher = less growth inhibition, active = 0.2 or less
# Details: 50 µM; LB; incubation time: overnight (16-24 h)
# 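Note: static incubation at 37 °C against the wild-type strain, values averaged over two biological replicates.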
row,SMILES,relative growth
1,C=CC[C@@H](CC(=O)NCCO)C(=O)N[C@@H](COC(=O)[C@@H](CC=C)CC(=O)OC(C)(C)C)Cc1c[nH]c2ccccc12,inactive: 1.01
2,C[C@@H]1CN([C@H](C)CO)C(=O)CCCn2nncc2CO[C@H]1CN(C)C(=O)Nc1ccc(C(F)(F)F)cc1,inactive: 0.947
3,CN(C)C(=O)c1cccc(-c2cccc(-c3nc(C(=O)NCc4ccccc4)cc4c3[C@@H](CCO)N([S@](=O)C(C)(C)C)C4)c2)c1,inactive: 0.974
4,COCC(=O)N(C)C[C@H]1Oc2cc(C#CCC3CCCC3)ccc2S(=O)(=O)N([C@@H](C)CO)C[C@@H]1C,inactive: 1.01
5,CN(C)CC(=O)N[C@@H]1CC[C@@H](CCNC(=O)C2CCC2)O[C@H]1CO,inactive: 1.05
6,CCCNC(=O)C[C@@H]1CC[C@H]2[C@@H](COc3ccc(NS(=O)(=O)c4ccccc4C)cc3C(=O)N2C)O1,inactive: 0.987
7,CC(C)c1c(C(=O)Nc2ccccc2)c(-c2ccccc2)c(-c2ccc(F)cc2)n1CC[C@@H](O)C[C@@H](O)CC(=O)O,inactive: 1
8,C[C@H](CO)N1C[C@H](C)[C@H](CN(C)Cc2ccccc2)OCCCC[C@H](C)Oc2ccc(NC(=O)C3CCCCC3)cc2C1=O,inactive: 1.01
9,COCC#Cc1ccc2c(c1)O[C@@H](CN(C)S(=O)(=O)c1ccc(F)cc1)[C@H](C)CN([C@H](C)CO)S2(=O)=O,inactive: 1.01
10,C[C@@H]1CN([C@@H](C)CO)C(=O)c2cccc(NS(=O)(=O)c3ccc(Cl)cc3)c2O[C@@H]1CN(C)Cc1ccc(Oc2ccccc2)cc1,inactive: 1.03
11,CCC(=O)NCc1nn(C)c2c1COCC2,inactive: 1.02
12,C[C@@H]1CN([C@H](C)CO)C(=O)c2cc(NC(=O)Nc3cccc4ccccc34)ccc2O[C@H]1CN(C)C(=O)Nc1ccccc1,inactive: 0.982
13,COc1ccc(S(=O)(=O)Nc2ccc3c(c2)C(=O)N([C@H](C)CO)C[C@@H](C)[C@@H](CN(C)C(=O)CCC(F)(F)F)OCCCC[C@@H](C)O3)cc1,inactive: 1
14,C[C@H]1CN([C@@H](C)CO)C(=O)c2cc(C#CCc3ccccc3)cnc2O[C@H]1CN(C)CC1CCOCC1,inactive: 1
15,CNCc1cc(C)nn1C,inactive: 0.989
16,C#CCSC1=N[C@@]2(COCc3ccc(OC)cc3)Oc3ccccc3[C@H]([C@H]2CO[Si](C)(C)C(C)(C)C)N1C(=O)c1ccccc1,inactive: 0.999
17,NCCCNCCCCNCCCN,inactive: 1.11
18,COc1ccc(-c2oc3cc(OC)c(OC)c(OC)c3c(=O)c2OC)cc1,inactive: 1.12
19,COc1ccc([Si](C)(C)[C@H]2[C@H](CC(=O)N3Cc4ccccc4C[C@H]3CO)O[C@@]3(C(=O)N(Cc4cccc(I)c4)c4ccccc43)[C@@H]2C)cc1,inactive: 1.03
20,COC(=O)C1C(O)CCC2CN3CCc4c([nH]c5ccccc45)C3CC21 (configuration not stated),inactive: 1
21,C[C@@H]1CCCCO[C@@H](CN(C)CC2CCCCC2)[C@H](C)CN([C@H](C)CO)C(=O)c2cc(NC(=O)NC3CCCCC3)ccc2O1,inactive: 0.989

row,SMILES,relative growth
1,C[C@@H]1CN([C@@H](C)CO)C(=O)c2cc(NC(=O)Nc3ccc(F)cc3)ccc2O[C@@H]1CN(C)Cc1ccc(C(F)(F)F)cc1,inactive: 0.985
2,C[C@@H]1CN([C@@H](C)CO)C(=O)c2cc(NS(=O)(=O)c3ccc(Cl)cc3)ccc2O[C@@H]1CN(C)C(=O)Nc1cccc2ccccc12,inactive: 1.03
3,C[C@@H]1CN([C@H](C)CO)C(=O)c2cccc(NC(=O)C3CC3)c2O[C@@H]1CN(C)S(=O)(=O)c1cn(C)cn1,inactive: 0.997
4,Nc1ccc2c(c1)nc(CO)n2CCO,inactive: 0.981
5,Cc1ccc(S(=O)(=O)N(C)C[C@@H]2Oc3c(NS(=O)(=O)c4ccc(F)cc4)cccc3C(=O)N([C@H](C)CO)C[C@@H]2C)cc1,inactive: 1.01
6,OCc1cccnc1,inactive: 0.957
7,Cc1ccc(S(=O)(=O)N(C)C[C@H]2Oc3ncc(-c4ccncc4)cc3C(=O)N([C@H](C)CO)C[C@H]2C)cc1,inactive: 1.02
8,C[C@@H]1CCCCO[C@@H](CN(C)S(=O)(=O)c2ccccc2)[C@H](C)CN([C@H](C)CO)C(=O)c2cc(NS(=O)(=O)c3cn(C)cn3)ccc2O1,inactive: 1.02
9,O=C1N[C@H](Cc2c[nH]c3ccccc23)COC(=O)[C@H](Cc2ccc(F)cc2)CC=CC[C@@H]1CC(=O)N(CCO)Cc1ccccc1,inactive: 0.995
10,COc1ccc(NC(=O)N(C)C[C@H]2Oc3ccc(NC(=O)Nc4cccc5ccccc45)cc3C(=O)N([C@H](C)CO)C[C@@H]2C)cc1,inactive: 0.983
11,C[C@H](CO)N1C[C@H](C)[C@H](CN(C)Cc2ccc(Cl)c(Cl)c2)Oc2c(NC(=O)CCCCCC(=O)Nc3ccccc3N)cccc2C1=O,inactive: 0.951
12,Cc1ccc(-c2ccc3c(c2)O[C@@H](CN(C)C(=O)CN(C)C)[C@@H](C)CN([C@H](C)CO)S3(=O)=O)cc1,inactive: 1
13,Cc1noc(C)c1NC(=O)N(C)C[C@H]1Oc2ccc(NC(=O)Nc3ccc(C(F)(F)F)cc3)cc2C(=O)N([C@@H](C)CO)C[C@H]1C,inactive: 0.936
14,CC(=O)NCC(=O)OCC(=O)c1ccccc1,inactive: 0.982
15,CC[C@H]1OC(=O)[C@H](C)[C@@H](O[C@H]2C[C@@](C)(OC)[C@@H](O)[C@H](C)O2)[C@@H](C)[C@@H](O[C@H]2O[C@H](C)C[C@H](N(C)C)[C@H]2O)[C@](C)(O)C[C@@H](C)C(=O)[C@H](C)[C@@H](O)[C@]1(C)O,inactive: 0.375
16,CC1=CC(=O)C(C(C)C)=CC1=O,inactive: 0.97
17,Cc1noc(C)c1S(=O)(=O)N(C)C[C@@H]1OCCCC[C@H](C)Oc2ccc(N(C)C)cc2C(=O)N([C@H](C)CO)C[C@@H]1C,inactive: 0.969
18,C[C@@H]1CN([C@H](C)CO)C(=O)c2cc(NS(=O)(=O)c3cn(C)cn3)ccc2O[C@@H]1CN(C)S(=O)(=O)c1cccs1,inactive: 0.99
19,C[C@@H]1CCCCO[C@@H](CN(C)C(=O)NC2CCCCC2)[C@H](C)CN([C@@H](C)CO)C(=O)c2cc(NC(=O)CCCCCC(=O)Nc3ccccc3N)ccc2O1,inactive: 0.95
20,C[C@@H]1CCCCO[C@@H](CN(C)S(=O)(=O)c2ccc(Cl)cc2)[C@H](C)CN([C@H](C)CO)C(=O)c2cc(NS(=O)(=O)c3ccc(Cl)cc3)ccc2O1,inactive: 1.02
21,CCCCCC/C=C\CCCCCCCC(=O)O,inactive: 1

row,SMILES,relative growth
1,COCC#Cc1cnc2c(c1)C(=O)N([C@H](C)CO)C[C@H](C)[C@@H](CN(C)S(=O)(=O)c1ccccc1)O2,inactive: 1
2,COCC(=O)N1C[C@H](C)[C@H](OC)CN(C)C(=O)c2ccc(NC(=O)c3ccc(F)cc3)cc2OC[C@H]1C,inactive: 0.983
3,COc1ccccc1NC(=O)C[C@H]1CC[C@H]2[C@@H](COc3ccc(NS(C)(=O)=O)cc3C(=O)N2C)O1,inactive: 0.981
4,Cc1cc(CO)c(O)c(CO)c1,inactive: 1.01
5,Cc1ccc(S(=O)(=O)N(C)C[C@@H]2OCCCC[C@H](C)Oc3ccc(NS(C)(=O)=O)cc3C(=O)N([C@H](C)CO)C[C@H]2C)cc1,inactive: 1.03
6,C[C@H](CO)N1C[C@H](C)[C@H](CN(C)Cc2ccc(C(=O)O)cc2)Oc2c(NC(=O)c3ccc(-c4nccs4)cc3)cccc2C1=O,inactive: 1.02
7,Cc1ccc(S(=O)(=O)N(C)C[C@@H]2OCCCC[C@@H](C)Oc3ccc(NS(=O)(=O)c4ccc(Cl)cc4)cc3C(=O)N([C@@H](C)CO)C[C@@H]2C)cc1,inactive: 1.04
8,COc1ccc([C@H]([C@H](Cc2ccccc2)OC(C)=O)N(C[C@H](/C=C/c2ccccc2)NC(=O)C(Cl)(Cl)Cl)[C@@H](Cc2ccccc2)C(OC)OC)cc1,inactive: 1.04
9,CN([NH2+][O-])C(=O)N[C@@H]1[C@@H](O)[C@H](O)[C@@H](CO)O[C@@H]1O,inactive: 0.865
10,COc1ccc(NC(=O)N(C)C[C@H]2Oc3c(NC(=O)c4ccc(-c5nccs5)cc4)cccc3C(=O)N([C@@H](C)CO)C[C@H]2C)cc1,inactive: 1.02
11,NNC(=O)c1nnn(-c2nonc2N)c1CN1CCCCC1,inactive: 1.09
12,C[C@H](CO)N1C[C@H](C)[C@@H](CN(C)S(=O)(=O)c2ccc(Cl)cc2)Oc2c(NC(=O)c3cnccn3)cccc2C1=O,inactive: 1.01
13,Cc1noc(C)c1NC(=O)N(C)C[C@H]1Oc2c(NC(=O)NC(C)C)cccc2C(=O)N([C@H](C)CO)C[C@@H]1C,inactive: 0.983
14,OC1CCOCC1,inactive: 0.978
15,COc1ccc(S(=O)(=O)N[C@@H]2CC[C@H](CC(=O)N3CCN(c4ccccc4)CC3)O[C@@H]2CO)cc1,inactive: 1.03
16,COC(=O)[C@@H](Cc1ccccc1)N[C@H](/C=C/C1CC1)[C@@H](O)CCn1cc(-c2ccc(C(=O)NO)s2)nn1,inactive: 0.993
17,CCCNC(=O)c1cc2c(c(-c3cccc(-c4ccc(F)cc4)c3)n1)[C@H](CCO)N([S@@](=O)C(C)(C)C)C2,inactive: 1.01
18,CC(C)NC(=O)N(C)C[C@H]1Oc2c(NC(=O)NC3CCCCC3)cccc2C(=O)N([C@@H](C)CO)C[C@H]1C,inactive: 0.994
19,C[C@@H]1CN([C@@H](C)CO)C(=O)c2cccc(NC(=O)Nc3ccccc3)c2O[C@@H]1CN(C)S(=O)(=O)c1cn(C)cn1,inactive: 0.992
20,COc1ccc(CCNC(=O)[C@@]2(Sc3ccc(C)cc3)CC(=O)N(C3Cc4ccccc4C3)[C@@H]2c2ccc(CO)cc2I)cc1,inactive: 1.01
